In a collection of fitness landscapes (doi:10.1038/s41467-024-54723-y):
Over roughly 18,000 sequences, “TetR repression strength (sort-seq, GFP reporter)” has its median near 0.23; the highest 2% begin near 0.68. The list shows a part of the results.

target: TetR (class B, Tn10) (UniProt P04483); assay: TetR repression strength (sort-seq, GFP reporter) (relative to tetO2 = 1); higher = stronger repression; details: E. coli
Outline: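 Repression strength is the top bin index plus one minus the read-weighted mean bin, relative to the unaltered operator's value. A low-copy library in E. coli SIG10-MAX randomized eight operator positions between a constitutive promoter and sfGFP, with TetR expressed constitutively; cells grew 5 h at 37 °C in LB with 50 µg/mL chloramphenicol and 10^6 were FACS-sorted into 13 bins that were each Illumina-sequenced. Three independent transformations were averaged, keeping only members with ≥30 reads in all replicates and CV ≤0.5.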

Chain of UniProt P04483 (P04483 whole entry): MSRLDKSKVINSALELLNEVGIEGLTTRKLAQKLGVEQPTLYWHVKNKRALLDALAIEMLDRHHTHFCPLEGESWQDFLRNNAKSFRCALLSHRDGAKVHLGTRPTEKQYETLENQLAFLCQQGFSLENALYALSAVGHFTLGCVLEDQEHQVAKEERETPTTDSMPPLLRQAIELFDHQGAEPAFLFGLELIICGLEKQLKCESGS

Going from TCCCGCACAGTGCGGGAGA to TCCCGGCCAGTTTCAGAGA, the TetR repression strength rises from 0.113 to 0.298.

First: TCCCCCGGAGTTGGGGAGA
Second: TCCCTACTAGTGAATGAGA
The TetR repression strength of the first is lower: 0.159 for the first, 0.426 for the second.

Compared with TCCCGTACAGTTCTTGAGA, TCCCAAACAGTCCTCGAGA is higher in TetR repression strength: 0.292 for the first, 0.391 for the second.

Compared with TCCCAACCAGTTTTAGAGA, TCCCATATAGTCGGTGAGA is lower in TetR repression strength: 0.399 for the first, 0.355 for the second.

Going from TCCCGGGTAGTGCCGGAGA to TCCCGCGAAGTCAAGGAGA, the TetR repression strength rises from 0.147 to 0.32.

First: TCCCAAAGAGTCAATGAGA
Second: TCCCTGGGAGTGCTCGAGA
The TetR repression strength of the first is higher: 0.357 for the first, 0.0982 for the second.

First: TCCCACGTAGTAAGGGAGA
Second: TCCCTGCCAGTAATAGAGA
The TetR repression strength of the first is lower: 0 for the first, 0.411 for the second.

First: TCCCTCTAAGTTCGGGAGA
Second: TCCCGAATAGTGACAGAGA
The TetR repression strength of the first is lower: 0.144 for the first, 0.464 for the second.

Compared with TCCCGCAAAGTCAGGGAGA, TCCCAGCAAGTAGTCGAGA is lower in TetR repression strength: 0.273 for the first, 0.249 for the second.

Going from TCCCGTCCAGTGCGTGAGA to TCCCACGTAGTATCAGAGA, the TetR repression strength falls from 0.139 to 0.0648.

Going from TCCCAATCAGTTGTAGAGA to TCCCCAAGAGTTTCGGAGA, the TetR repression strength falls from 0.439 to 0.254.

Going from TCCCAGCTAGTACAAGAGA to TCCCAGCGAGTCCTCGAGA, the TetR repression strength rises from 0.242 to 0.534.

Going from TCCCGTCCAGTGATAGAGA to TCCCTCAAAGTGTGGGAGA, the TetR repression strength falls from 0.464 to 0.454.

Going from TCCCGTCAAGTTATTGAGA to TCCCACATAGTGCATGAGA, the TetR repression strength rises from 0.167 to 0.288.

First: TCCCGTACAGTATGGGAGA
Second: TCCCGACAAGTTCACGAGA
The TetR repression strength of the first is higher: 0.189 for the first, 0 for the second.

Compared with TCCCCGGAAGTGCGGGAGA, TCCCCGGTAGTGCACGAGA is lower in TetR repression strength: 0.265 for the first, 0.164 for the second.

First: TCCCGCGGAGTTGAGGAGA
Second: TCCCCACAAGTGGATGAGA
The TetR repression strength of the first is lower: 0.0769 for the first, 1.22 for the second.

Going from TCCCCAAGAGTGGATGAGA to TCCCGCTTAGTAGAGGAGA, the TetR repression strength rises from 0.19 to 0.488.

First: TCCCTATGAGTCCGAGAGA
Second: TCCCGTTAAGTTTACGAGA
The TetR repression strength of the first is lower: 0.0546 for the first, 0.06 for the second.

Compared with TCCCAATTAGTGATTGAGA, TCCCCGTTAGTGTTGGAGA is higher in TetR repression strength: 0.473 for the first, 0.677 for the second.

Going from TCCCGTCTAGTCGTAGAGA to TCCCATAAAGTAGAGGAGA, the TetR repression strength falls from 0.317 to 0.174.

Compared with TCCCGGGTAGTCAGGGAGA, TCCCCGGGAGTTAATGAGA is higher in TetR repression strength: 0.176 for the first, 0.517 for the second.

First: TCCCGTTTAGTTGATGAGA
Second: TCCCGTCGAGTATTTGAGA
The TetR repression strength of the first is lower: 0.0401 for the first, 0.117 for the second.

Compared with TCCCGTAGAGTACAGGAGA, TCCCTCACAGTGGGTGAGA is lower in TetR repression strength: 0.229 for the first, 0.098 for the second.

Compared with TCCCTCATAGTGGTGGAGA, TCCCAAAAAGTGGATGAGA is lower in TetR repression strength: 0.412 for the first, 0.374 for the second.

First: TCCCTGTGAGTGCCGGAGA
Second: TCCCTGGAAGTTGGGGAGA
The TetR repression strength of the first is higher: 0.164 for the first, 0.151 for the second.

Compared with TCCCGGTTAGTGTCAGAGA, TCCCGCCGAGTCGGTGAGA is lower in TetR repression strength: 0.222 for the first, 0.156 for the second.

Going from TCCCTTGCAGTGAATGAGA to TCCCGACTAGTCTAAGAGA, the TetR repression strength rises from 0.374 to 0.39.

First: TCCCTTGCAGTGATTGAGA
Second: TCCCTGAAAGTTGGAGAGA
The TetR repression strength of the first is higher: 0.596 for the first, 0.166 for the second.

First: TCCCGCGCAGTCGGCGAGA
Second: TCCCATTGAGTGATGGAGA
The TetR repression strength of the first is lower: 0.161 for the first, 0.377 for the second.

Going from TCCCTATCAGTTACCGAGA to TCCCTTTGAGTGGACGAGA, the TetR repression strength falls from 0.663 to 0.246.

Compared with TCCCTGATAGTCCGTGAGA, TCCCGGTAAGTCGGCGAGA is lower in TetR repression strength: 0.185 for the first, 0.126 for the second.

Compared with TCCCGGCGAGTGTCTGAGA, TCCCATCCAGTCCGGGAGA is lower in TetR repression strength: 0.388 for the first, 0.302 for the second.

Compared with TCCCGTCGAGTTGAAGAGA, TCCCTTCCAGTGTACGAGA is lower in TetR repression strength: 0.603 for the first, 0.338 for the second.

First: TCCCGGAAAGTCTAGGAGA
Second: TCCCTAGTAGTTACCGAGA
The TetR repression strength of the first is higher: 0.216 for the first, 0.12 for the second.

First: TCCCTGCAAGTGGGCGAGA
Second: TCCCCGGGAGTTCTCGAGA
The TetR repression strength of the first is higher: 0.224 for the first, 0.0879 for the second.

Going from TCCCCATGAGTCTGTGAGA to TCCCCTTTAGTCTGCGAGA, the TetR repression strength rises from 0.164 to 0.429.

Compared with TCCCAAGCAGTATTCGAGA, TCCCTACTAGTGCATGAGA is higher in TetR repression strength: 0.318 for the first, 0.326 for the second.

Compared with TCCCTCCAAGTACTTGAGA, TCCCTGAGAGTCGAAGAGA is higher in TetR repression strength: 0.381 for the first, 1.18 for the second.

First: TCCCTTGGAGTGTGGGAGA
Second: TCCCGAAAAGTGGAGGAGA
The TetR repression strength of the first is lower: 0.2 for the first, 0.224 for the second.

Going from TCCCTGCGAGTTATCGAGA to TCCCTGTTAGTGCATGAGA, the TetR repression strength falls from 0.126 to 0.0225.

Compared with TCCCGTTCAGTTCTCGAGA, TCCCTTGAAGTAATGGAGA is higher in TetR repression strength: 0.167 for the first, 0.405 for the second.

First: TCCCGGTTAGTACCGGAGA
Second: TCCCATGAAGTGTATGAGA
The TetR repression strength of the first is higher: 0.272 for the first, 0.102 for the second.

Compared with TCCCTAAGAGTGTGCGAGA, TCCCCACCAGTCCTCGAGA is higher in TetR repression strength: 0.258 for the first, 0.528 for the second.

Compared with TCCCAAAAAGTGAGTGAGA, TCCCGAGTAGTACGTGAGA is higher in TetR repression strength: 0.14 for the first, 0.164 for the second.

First: TCCCGACTAGTGATAGAGA
Second: TCCCGTGGAGTGCAGGAGA
The TetR repression strength of the first is higher: 0.632 for the first, 0.187 for the second.

Compared with TCCCAGGGAGTGGTGGAGA, TCCCGGCTAGTTACTGAGA is lower in TetR repression strength: 0.202 for the first, 0.166 for the second.

First: TCCCAGGGAGTACACGAGA
Second: TCCCCACGAGTTCGAGAGA
The TetR repression strength of the first is lower: 0.0214 for the first, 0.207 for the second.

First: TCCCCTGGAGTCTGGGAGA
Second: TCCCTTACAGTATAGGAGA
The TetR repression strength of the first is higher: 0.281 for the first, 0.064 for the second.

Compared with TCCCTAGAAGTACTAGAGA, TCCCTGTAAGTTTGAGAGA is lower in TetR repression strength: 0.152 for the first, 0.0173 for the second.

Going from TCCCACGAAGTCAGCGAGA to TCCCTTCTAGTTGGCGAGA, the TetR repression strength falls from 0.445 to 0.281.
